The results in this text go back to the supplement of paper PMC12217912.

First the molecules themselves.
B1: TEV protease; numbered along this chain (parent)
chain: MGESLFKGPRDYNPISSSICHLTNESDGHTTSLYGIGFGPFIITNKHLFRRNNGTLVVQSLHGVFKVKDTTTLQQHLVDGRDMIIIRMPKDFPPFPQKLKFREPQREERICLVTTNFQTKSMSSMVSDTSCTFPSGDGIFWKHWIQTKDGQCGSPLVSTRDGFIVGIHSASNFTNTNNYFTSVPKNFMELLTNQEAQQWVSGWRLNADSVLWGGHKVFMVKPEEPFQPVKEATQL

The assay covers variants of B1. Put plainly: raw area under fraction-flipped curve 0-4 h after induction (AUC4h, not background-subtracted), DNA-recorder readout of cleavage of the substrate (dimensionless); higher = more cleavage of the substrate by the protease variant. The note with it: temperature: 34 °C; time window: 0-4 h after rhamnose induction.

The other results are listed elsewhere or left out. Sequences were assembled here from the parent chain. Inactive controls read about 0.05.
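Also: Bxb1 expression induced with 0.2% (w/v) L-rhamnose at OD600 near 0.5, cultures sampled hourly, flipped fraction per protease–substrate barcode pair counted by paired-end Illumina sequencing.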

With MGESLFKGPRDYNPISSSICHLTNESDGHTTSLYGIGFGPFIITNKHLFRRNNGTLVVQSLHGVFKVKDTTTLQQHLVDGRDMIIIRMPKDFPDFPQKLKFREPQREERICLVTTNFQTKSMSSMVSDTSCTFPSGDGIFWKHWIQTKDGQCGSPLVSTRDGFIVGIHSASNFTNTNNYFTSVPKNFMELLTNQEAQQWVSGWRLNADSVLWGGHKVFMVKPEEPFQPVKEATQL [P94D], the “area with substrate ENLYCQS” value turned out to be 0.091, the “area with substrate ENLYDQS” value came to 0.0563, the “area with substrate ENLYGQS” value turned out to be 0.106 and the “area with substrate ENLYHQS” value was 0.0702. Besides, the “area with substrate ENLYIQS” value turned out to be 0.116, the “area with substrate ENLYKQS” value is 0.0413, the “area with substrate ENLYLQS” value came out at 0.0858 and the “area with substrate ENLYMQS” value was determined as 0.0887. Besides, the “area with substrate ENLYQQS” value came to 0.0643, the “area with substrate ENLYRQS” value stood at 0.0896, the “area with substrate ENLYSQS” value was found to be 0.112 and the “area with substrate ENLYWQS” value was 0.115. The “area with substrate ENLYYQS” value was found to be 0.0939.

With MGESLFKGPRDYNPISSSICHLTNESDGHTTSLYGIGFGPFIITNKHLFRRNNGILVVQSLHGVFKVKDTTTLQQHLVDGRDMIIIRMPKDFPPFPQKLKFREPQREERICLVTTNFQTKSMSSMVSDTSCTFPSGDGIFWKHWIQTKDGQCGSPLVSTRDGFIVGIHSASNFTNTNNYFTSVPKNFMELLTNQEAQQWVSGWRLNADSVLWGGHKVFMVKPEEPFQPVKEATQL [T55I], the “area with substrate ENLYCQS” value came to 0.0859, the “area with substrate ENLYHQS” value amounted to 0.0756, the “area with substrate ENLYIQS” value came out at 0.121 and the “area with substrate ENLYKQS” value turned out to be 0.0707. Also, the “area with substrate ENLYLQS” value is 0.0649, the “area with substrate ENLYMQS” value is 0.0763, the “area with substrate ENLYSQS” value stood at 0.0892 and the “area with substrate ENLYVQS” value turned out to be 0.0988. For the same variant, the “area with substrate ENLYWQS” value stood at 0.0802.

Turning to MGESLFKGPRDYNPISSSICHLTNESDGHTTSLYGIGFGPFIITNKHLFRRNNGELVVQSLHGVFKVKDTTTLQQHLVDGRDMIIIRMPKDFPPFPQKLKFREPQREERICLVTTNFQTKSMSSMVSDTSCTFPSGDGIFWKHWIQTKDGQCGSPLVSTRDGFIVGIHSASNFTNTNNYFTSVPKNFMELLTNQEAQQWVSGWRLNADSVLWGGHKVFMVKPEEPFQPVKEATQL [T55E], the “area with substrate ENLYCQS” value amounted to 0.0703, the “area with substrate ENLYDQS” value stood at 0.0665, the “area with substrate ENLYEQS” value amounted to 0.0659 and the “area with substrate ENLYGQS” value amounted to 0.0647. Further, the “area with substrate ENLYHQS” value was determined as 0.0735, the “area with substrate ENLYIQS” value amounted to 0.128, the “area with substrate ENLYKQS” value worked out at 0.0561 and the “area with substrate ENLYMQS” value is 0.0855. Also, the “area with substrate ENLYNQS” value stood at 0.0688, the “area with substrate ENLYPQS” value turned out to be 0.066, the “area with substrate ENLYQQS” value was 0.0578 and the “area with substrate ENLYRQS” value was 0.0674. In addition, the “area with substrate ENLYSQS” value worked out at 0.0665, the “area with substrate ENLYTQS” value turned out to be 0.0849, the “area with substrate ENLYVQS” value came out at 0.0427 and the “area with substrate ENLYWQS” value amounted to 0.0842. The “area with substrate ENLYYQS” value was found to be 0.0598.

On to MGESLFKGPRDYNPISSSICHLTNESDGHTTSLYGIGFGPFIITNKHLFRRNNGTLVVQSLHNVFKVKDTTTLQQHLVDGRDMIIIRMPKDFPPFPQKLKFREPQREERICLVTTNFQTKSMSSMVSDTSCTFPSGDGIFWKHWIQTKDGQCGSPLVSTRDGFIVGIHSASNFTNTNNYFTSVPKNFMELLTNQEAQQWVSGWRLNADSVLWGGHKVFMVKPEEPFQPVKEATQL [G63N], for which the “area with substrate ENLYCQS” value came out at 0.072, the “area with substrate ENLYDQS” value stood at 0.0574, the “area with substrate ENLYEQS” value was found to be 0.0645 and the “area with substrate ENLYHQS” value came out at 0.0697. The “area with substrate ENLYIQS” value amounted to 0.113, the “area with substrate ENLYKQS” value worked out at 0.0674, the “area with substrate ENLYLQS” value turned out to be 0.0434 and the “area with substrate ENLYMQS” value stood at 0.0734. The “area with substrate ENLYNQS” value is 0.0594, the “area with substrate ENLYPQS” value was 0.0555, the “area with substrate ENLYQQS” value was determined as 0.0528 and the “area with substrate ENLYRQS” value came out at 0.0593. The “area with substrate ENLYSQS” value is 0.067, the “area with substrate ENLYTQS” value amounted to 0.0657, the “area with substrate ENLYVQS” value turned out to be 0.105 and the “area with substrate ENLYWQS” value is 0.0699. In addition, the “area with substrate ENLYYQS” value turned out to be 0.0733.

With MGESLFKGPRDYNPISSSICHLTNESDGHTTSLYGIGFGPFIITNKHLFRRNNGTLVVQSLHGVFKVKDTTTLQQHLVDGRDMIIIRMWKDFPPFPQKLKFREPQREERICLVTTNFQTKSMSSMVSDTSCTFPSGDGIFWKHWIQTKDGQCGSPLVSTRDGFIVGIHSASNFTNTNNYFTSVPKNFMELLTNQEAQQWVSGWRLNADSVLWGGHKVFMVKPEEPFQPVKEATQL [P89W], the “area with substrate ENLYCQS” value is 0.0574, the “area with substrate ENLYDQS” value came out at 0.0446, the “area with substrate ENLYEQS” value stood at 0.0557 and the “area with substrate ENLYGQS” value was found to be 0.047. For the same variant, the “area with substrate ENLYHQS” value worked out at 0.0447, the “area with substrate ENLYIQS” value is 0.0709, the “area with substrate ENLYKQS” value amounted to 0.0511 and the “area with substrate ENLYNQS” value came out at 0.057. Also, the “area with substrate ENLYPQS” value came to 0.0529, the “area with substrate ENLYQQS” value was 0.0446, the “area with substrate ENLYRQS” value is 0.0475 and the “area with substrate ENLYSQS” value turned out to be 0.0376. For the same variant, the “area with substrate ENLYTQS” value was 0.0518, the “area with substrate ENLYWQS” value turned out to be 0.0506 and the “area with substrate ENLYYQS” value was determined as 0.0387.

With MGESLFKGPRDYNPISSSICHLTNESDGHTTSLYGIGFGPFIITNKHLFRRNNGTLVVQSLHGVFKVKDTTTLQQHLVDGGDMIIIRMPKDFPPFPQKLKFREPQREERICLVTTNFQTKSMSSMVSDTSCTFPSGDGIFWKHWIQTKDGQCGSPLVSTRDGFIVGIHSASNFTNTNNYFTSVPKNFMELLTNQEAQQWVSGWRLNADSVLWGGHKVFMVKPEEPFQPVKEATQL [R81G], the “area with substrate ENLYCQS” value was 0.0774, the “area with substrate ENLYDQS” value came out at 0.0571, the “area with substrate ENLYEQS” value amounted to 0.0569 and the “area with substrate ENLYGQS” value came to 0.0717. Also, the “area with substrate ENLYHQS” value amounted to 0.0585, the “area with substrate ENLYIQS” value stood at 0.0983, the “area with substrate ENLYMQS” value was 0.0589 and the “area with substrate ENLYNQS” value turned out to be 0.0652. Moreover, the “area with substrate ENLYQQS” value is 0.07, the “area with substrate ENLYRQS” value is 0.0529, the “area with substrate ENLYTQS” value turned out to be 0.0648 and the “area with substrate ENLYVQS” value was 0.0871. Also, the “area with substrate ENLYWQS” value was determined as 0.0608 and the “area with substrate ENLYYQS” value was determined as 0.0595.

MGESLFKGPRDYNPISSSICHLTNESDGHTTSLYGIGFGPFIITNKHLFRRINGTLVVQSLHGVFKVKDTTTLQQHLVDGRDMIIIRMPKDFPPFPQKLKFREPQREERICLVTTNFQTKSMSSMVSDTSCTFPSGDGIFWKHWIQTKDGQCGSPLVSTRDGFIVGIHSASNFTNTNNYFTSVPKNFMELLTNQEAQQWVSGWRLNADSVLWGGHKVFMVKPEEPFQPVKEATQL [N52I]: the “area with substrate ENLYCQS” value worked out at 0.0483, the “area with substrate ENLYDQS” value amounted to 0.0491, the “area with substrate ENLYIQS” value amounted to 0.0844 and the “area with substrate ENLYQQS” value stood at 0.0604.

Consider MGESLFKGPRDYNPISSSICHLTNESDGHTTSLYGIGFGPFIITNKHLFRRSNGTLVVQSLHGVFKVKDTTTLQQHLVDGRDMIIIRMPKDFPPFPQKLKFREPQREERICLVTTNFQTKSMSSMVSDTSCTFPSGDGIFWKHWIQTKDGQCGSPLVSTRDGFIVGIHSASNFTNTNNYFTSVPKNFMELLTNQEAQQWVSGWRLNADSVLWGGHKVFMVKPEEPFQPVKEATQL [N52S], for which the “area with substrate ENLYCQS” value is 0.0663, the “area with substrate ENLYDQS” value came out at 0.0665, the “area with substrate ENLYEQS” value was determined as 0.0724 and the “area with substrate ENLYHQS” value was 0.0648. For the same variant, the “area with substrate ENLYIQS” value amounted to 0.083, the “area with substrate ENLYKQS” value turned out to be 0.0521, the “area with substrate ENLYLQS” value came to 0.0629 and the “area with substrate ENLYMQS” value worked out at 0.0688. For the same variant, the “area with substrate ENLYNQS” value turned out to be 0.0576, the “area with substrate ENLYQQS” value is 0.0669, the “area with substrate ENLYRQS” value is 0.064 and the “area with substrate ENLYSQS” value amounted to 0.0657. Also, the “area with substrate ENLYWQS” value is 0.0392 and the “area with substrate ENLYYQS” value is 0.0707.

Take MGESLFKGPRDYNPISSSICHLTNESDGHTTSLYGIGFGPFIITNKHLFRRYNGTLVVQSLHGVFKVKDTTTLQQHLVDGRDMIIIRMPKDFPPFPQKLKFREPQREERICLVTTNFQTKSMSSMVSDTSCTFPSGDGIFWKHWIQTKDGQCGSPLVSTRDGFIVGIHSASNFTNTNNYFTSVPKNFMELLTNQEAQQWVSGWRLNADSVLWGGHKVFMVKPEEPFQPVKEATQL [N52Y]: the “area with substrate ENLYCQS” value was 0.0676, the “area with substrate ENLYDQS” value amounted to 0.0804, the “area with substrate ENLYEQS” value is 0.0522 and the “area with substrate ENLYGQS” value stood at 0.041. Besides, the “area with substrate ENLYHQS” value was determined as 0.07, the “area with substrate ENLYIQS” value was found to be 0.0805, the “area with substrate ENLYKQS” value is 0.0676 and the “area with substrate ENLYMQS” value was 0.0664. The “area with substrate ENLYNQS” value was found to be 0.0856, the “area with substrate ENLYPQS” value came out at 0.0629, the “area with substrate ENLYQQS” value worked out at 0.0563 and the “area with substrate ENLYRQS” value turned out to be 0.0802. In addition, the “area with substrate ENLYTQS” value amounted to 0.0595, the “area with substrate ENLYVQS” value was found to be 0.0867 and the “area with substrate ENLYYQS” value was determined as 0.0517.
